Test results: patent publication US12479847B2 (DANA-FARBER CANCER INSTITUTE, INC., priority 2019, dated 2025)

What follows are compounds tested against human LRRK2(G2019S) kinase (Homo sapiens, UniProt Q5S007, G2019S) (assay: biochemical). Conditions: not given.
In short: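 Human LRRK2 (25 ng) or LRRK2(G2019S) (16 ng) reacted with 10 μM ATP and 0.2 μg substrate in Tris pH 7.4, MgCl2, DTT, BSA for 60 min at 25 °C. ADP measured by ADP-Glo luminescence; 12-point 1:3 dilutions from 50 μM to 0.01 nM, 0.5% DMSO controls, curve-fitted.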

| Compound | IC50 |
| --- | --- |
| CNc1nc(Nc2ccc(S(=O)(=O)N3CCC(N4CCOCC4)CC3)cc2OC)nc2[nH]cc(Cl)c12 [Compound 12, 5-chloro-N2-(2-methoxy-4-((4-morpholinopiperidin-1-yl)sulfonyl)phenyl)-N4-methyl-7H-pyrrolo[2,3-d]pyrimidine-2,4-diamine] | < 0.01 µM |
| CNc1nc(Nc2ccc(C(=O)N3CCC(N4CCOCC4)CC3)c3c2OCO3)nc2[nH]cc(Cl)c12 [Compound 75, (7-((5-chloro-4-(methylamino)-7H-pyrrolo[2,3-d]pyrimidin-2-yl)amino)benzo[d][1,3]dioxol-4-yl)(4-morpholinopiperidin-1-yl)methanone] | < 0.01 µM |
| CNc1nc(Nc2ccc(P3(=O)CCN(C4CCOCC4)CC3)cc2OC)nc2[nH]cc(Cl)c12 [Compound 77, 4-(4-((5-chloro-4-(methylamino)-7H-pyrrolo[2,3-d]pyrimidin-2-yl)amino)-3-methoxyphenyl)-1-(tetrahydro-2H-pyran-4-yl)-1,4-azaphosphinane 4-oxide] | < 0.01 µM |
| CCCNc1nc(Nc2ccc(P3(=O)CCN(C4CC4)CC3)cc2OC)nc2[nH]cc(Cl)c12 [Compound 99, 4-(4-((5-chloro-4-(propylamino)-7H-pyrrolo[2,3-d]pyrimidin-2-yl)amino)-3-methoxyphenyl)-1-cyclopropyl-1,4-azaphosphinane 4-oxide] | < 0.01 µM |
| COc1cc(S(C)(=O)=O)ccc1Nc1nc(NCC2CCC2)c2c(Cl)c[nH]c2n1 [Compound 66, 5-chloro-N4-(cyclobutylmethyl)-N2-(2-methoxy-4-(methylsulfonyl)phenyl)-7H-pyrrolo[2,3-d]pyrimidine-2,4-diamine] | > 1 µM |
| CCNc1nc(Nc2ccc(S(C)(=O)=O)cc2OC)nc2[nH]cc(Cl)c12 [Compound 16, 5-chloro-N4-ethyl-N2-(2-methoxy-4-(methylsulfonyl)phenyl)-7H-pyrrolo[2,3-d]pyrimidine-2,4-diamine] | 0.01 to 0.1 µM |
| COc1cc(S(=O)(=O)N2CCOCC2)ccc1Nc1nc(NC2CCCCC2)c2c(Cl)c[nH]c2n1 [Compound 58, 5-chloro-N4-cyclohexyl-N2-(2-methoxy-4-(morpholinosulfonyl)phenyl)-7H-pyrrolo[2,3-d]pyrimidine-2,4-diamine] | > 1 µM |
| COc1cc(P2(=O)CCN(C(C)=O)CC2)ccc1Nc1nc(NCC(C)C)c2c(Cl)c[nH]c2n1 [Compound 97, 1-(4-(4-((5-chloro-4-(isobutylamino)-7H-pyrrolo[2,3-d]pyrimidin-2-yl)amino)-3-methoxyphenyl)-4-oxido-1,4-azaphosphinan-1-yl)ethan-1-one] | < 0.01 µM |
| COc1cc(S(=O)(=O)N2CCOCC2)ccc1Nc1nc(NCC(C)C)c2c(Cl)c[nH]c2n1 [Compound 31, 5-chloro-N4-isobutyl-N2-(2-methoxy-4-(morpholinosulfonyl)phenyl)-7H-pyrrolo[2,3-d]pyrimidine-2,4-diamine] | 0.1 to 1 µM |
| O=C(c1ccc(Nc2nc(NC3CCC3)c3c(Cl)c[nH]c3n2)c2c1OCCO2)N1CCOCC1 [Compound 30, (8-((5-chloro-4-(cyclobutylamino)-7H-pyrrolo[2,3-d]pyrimidin-2-yl)amino)-2,3-dihydrobenzo[b][1,4]dioxin-5-yl)(morpholino)methanone] | < 0.01 µM |
| COc1cc(S(C)(=O)=O)ccc1Nc1nc(N[C@H]2CCOC2)c2c(Cl)c[nH]c2n1 [Compound 94, (S)-5-chloro-N2-(2-methoxy-4-(methylsulfonyl)phenyl)-N4-(tetrahydrofuran-3-yl)-7H-pyrrolo[2,3-d]pyrimidine-2,4-diamine] | < 0.01 µM |
| CCCNc1nc(Nc2ccc(C(=O)N3CCC(N4CCOCC4)CC3)c3c2OCC3)nc2[nH]cc(Cl)c12 [Compound 102, (7-((5-chloro-4-(propylamino)-7H-pyrrolo[2,3-d]pyrimidin-2-yl)amino)-2,3-dihydrobenzofuran-4-yl)(4-morpholinopiperidin-1-yl)methanone] | < 0.01 µM |

More lines, now with the values ahead:

| IC50 | Compound |
| --- | --- |
| < 0.01 µM | COc1cc(S(=O)(=O)N2CCC(N3CCOCC3)CC2)ccc1Nc1nc(NCCS(C)(=O)=O)c2c(Cl)c[nH]c2n1 [Compound 69, 5-chloro-N2-(2-methoxy-4-((4-morpholinopiperidin-1-yl)sulfonyl)phenyl)-N4-(2-(methylsulfonyl)ethyl)-7H-pyrrolo[2,3-d]pyrimidine-2,4-diamine] |
| 0.01 to 0.1 µM | O=C(c1ccc(Nc2nc(NC3CCCCC3)c3c(Cl)c[nH]c3n2)c2c1CCO2)N1CCC(N2CCOCC2)CC1 [Compound 80, (7-((5-chloro-4-(cyclohexylamino)-7H-pyrrolo[2,3-d]pyrimidin-2-yl)amino)-2,3-dihydrobenzofuran-4-yl)(4-morpholinopiperidin-1-yl)methanone] |
| < 0.01 µM | O=C(c1ccc(Nc2nc(N[C@H]3CCOC3)c3c(Cl)c[nH]c3n2)c2c1OCCO2)N1CCOCC1 [Compound 95] |
| < 0.01 µM | CNc1nc(Nc2ccc(P3(=O)CCN(C4CC4)CC3)cc2OC)nc2[nH]cc(Cl)c12 [Compound 85, 4-(4-((5-chloro-4-(methylamino)-7H-pyrrolo[2,3-d]pyrimidin-2-yl)amino)-3-methoxyphenyl)-1-cyclopropyl-1,4-azaphosphinane 4-oxide] |
| 0.01 to 0.1 µM | CCCNc1nc(Nc2ccc(C(=O)N3CCOCC3)c3c2OCCO3)nc2[nH]cc(Cl)c12 [Compound 20, (8-((5-chloro-4-(propylamino)-7H-pyrrolo[2,3-d]pyrimidin-2-yl)amino)-2,3-dihydrobenzo[b][1,4]dioxin-5-yl)(morpholino)methanone] |
| 0.1 to 1 µM | CCCNc1nc(Nc2ccc(S(=O)(=O)N3CCOCC3)cc2OC)nc2[nH]cc(Cl)c12 [Compound 18, 5-chloro-N2-(2-methoxy-4-(morpholinosulfonyl)phenyl)-N4-propyl-7H-pyrrolo[2,3-d]pyrimidine-2,4-diamine] |
| > 1 µM | COc1cc(S(C)(=O)=O)ccc1Nc1nc(NC2CCCCC2)c2c(Cl)c[nH]c2n1 [Compound 59, 5-chloro-N4-cyclohexyl-N2-(2-methoxy-4-(methylsulfonyl)phenyl)-7H-pyrrolo[2,3-d]pyrimidine-2,4-diamine] |
| 0.1 to 1 µM | CC[C@@H](C)Nc1nc(Nc2ccc(S(=O)(=O)N3CCOCC3)cc2OC)nc2[nH]cc(Cl)c12 [Compound 47, (R)—N4-(sec-butyl)-5-chloro-N2-(2-methoxy-4-(morpholinosulfonyl)phenyl)-7H-pyrrolo[2,3-d]pyrimidine-2,4-diamine] |
| 0.01 to 0.1 µM | O=C(c1ccc(Nc2nc(NC3CCC3)c3c(Cl)c[nH]c3n2)c2c1OCCO2)N1CCC(N2CCOCC2)CC1 [Compound 4, (8-((5-chloro-4-(cyclobutylamino)-7H-pyrrolo[2,3-d]pyrimidin-2-yl)amino)-2,3-dihydrobenzo[b][1,4]dioxin-5-yl)(4-morpholinopiperidin-1-yl)methanone] |
| > 1 µM | COc1cc(S(=O)(=O)N2CCOCC2)ccc1Nc1nc(NC2CCCC2)c2c(Cl)c[nH]c2n1 [Compound 55, 5-chloro-N4-cyclopentyl-N2-(2-methoxy-4-(morpholinosulfonyl)phenyl)-7H-pyrrolo[2,3-d]pyrimidine-2,4-diamine] |

These compounds were tested against T1, panel of 468 kinases (Homo sapiens, UniProt Q5S007, G2019S) (assay: KINOMEscan (ScanMAX) kinase profiling). Conditions: LRRK2(G2019S), read-out: % control.
T1 construct: purchased KINOMEscan (ScanMAX) service
Format: binding
Experimental: The kinase selectivity of inventive compounds 12, 75, and 77 was evaluated by KINOMEscan®. KINOMEscan® (ScanMAX™) analysis was performed against a near comprehensive panel of 468 kinases. The control percentage (% control) for inventive compounds at 1 μM in DMSO was determined by Equation 1: % control=(inventive compound−positive control)/(negative control−positive control)×100%, Equation 1
wherein the positive control is a compound with a % control value of 0% relative light units (RLU), and the negative control (i.e., DMSO) has % control value of 100% RLU. The enzyme selectivity in the present invention is defined as follows: inventive compounds are considered active for an enzyme when the observed % control is less than 35% (<35%).

| Compound | remaining binding at 1 µM |
| --- | --- |
| CNc1nc(Nc2ccc(S(=O)(=O)N3CCC(N4CCOCC4)CC3)cc2OC)nc2[nH]cc(Cl)c12 [Compound 12, 5-chloro-N2-(2-methoxy-4-((4-morpholinopiperidin-1-yl)sulfonyl)phenyl)-N4-methyl-7H-pyrrolo[2,3-d]pyrimidine-2,4-diamine] | 1.5% |
| CNc1nc(Nc2ccc(C(=O)N3CCC(N4CCOCC4)CC3)c3c2OCO3)nc2[nH]cc(Cl)c12 [Compound 75, (7-((5-chloro-4-(methylamino)-7H-pyrrolo[2,3-d]pyrimidin-2-yl)amino)benzo[d][1,3]dioxol-4-yl)(4-morpholinopiperidin-1-yl)methanone] | 0.3% |
| CNc1nc(Nc2ccc(P3(=O)CCN(C4CCOCC4)CC3)cc2OC)nc2[nH]cc(Cl)c12 [Compound 77, 4-(4-((5-chloro-4-(methylamino)-7H-pyrrolo[2,3-d]pyrimidin-2-yl)amino)-3-methoxyphenyl)-1-(tetrahydro-2H-pyran-4-yl)-1,4-azaphosphinane 4-oxide] | 2.1% |
